PubChem BioAssay AID504706 (National Center for Advancing Translational Sciences (NCATS), 2011)
About 200 (0.062%) of roughly 320,000 compounds were called active. Inconclusive results, whose numbers are uncertain, are shown with a selection of clear calls. Calls come from the whole dose curve; as a rule, active = well fitted activation curve with a large enough effect; inconclusive = small, poorly fitted or top-dose-only effect; inactive = no such curve, though single readings can be large or run the other way. No potency is given beside an inconclusive call; the fits are too rough.

Test: qHTS assay for re-activators of p53 using a Luc reporter; note: nearly all actives have a fitted effect of over 45% in size
Conditions: H1299 p53-A138V BP100-luciferase reporter, luminescence, 24 h; series mostly up to 92.2 µM
In short: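 p53-null H1299 cells stably carrying temperature-sensitive p53-A138V and a BP100-luciferase reporter were pinned with compounds (4-point, 1:5 series) and held 24 hrs at 37 deg C. Luminescence was read 10 min after detection reagent.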
Potency is the fitted concentration of half-maximal effect; tags give direction and shape of the fitted curve.

**Q.** For Cc1cccc(C)c1Nc1nnc(SCc2cn3cccc(C)c3n2)s1, which Potency is on record?
**A.** Its Potency is “inactive”.

**Q.** For O=C(CNC(=O)c1ccco1)Nc1ccc(N2CCCCCC2)cc1, which Potency is on record?
**A.** The Potency was inconclusive [activator, partial curve, poor fit].

**Q.** Which Potency does the source give for O=C(CSc1nc2cc(Cl)ccc2o1)Nc1ccc(N2CCOCC2)cc1 here?
**A.** The Potency was inconclusive [activator, partial curve, poor fit].

**Q.** Which Potency does the source give for Cc1ccc(-n2[nH]c(C)c(/C=C3/C=Nc4ccccc43)c2=O)cc1C here?
**A.** Its Potency is inconclusive [activator, partial curve, poor fit].

**Q.** With CC(Sc1nncs1)C(=O)NCC(=O)Nc1ccc(F)c(F)c1F (configuration not stated) as the compound, how does the Potency read?
**A.** The Potency was inconclusive [activator, single point].

**Q.** For O=c1c2ccccc2nc2n1CCc1c-2[nH]c2ccccc12, which Potency is on record?
**A.** The Potency was inconclusive [activator, full curve, poor fit].

**Q.** Which Potency does the source give for COc1ccc(NC(=S)N2N=CCC2c2ccccc2)cc1 (configuration not stated) here?
**A.** The Potency was inconclusive [activator, partial curve, poor fit].

**Q.** Which Potency does the source give for O=Cc1ccccc1OCCOc1ccc([N+](=O)[O-])cc1 here?
**A.** Its Potency is inconclusive [activator, partial curve, poor fit].

**Q.** For CCOc1ccc(OCc2ccc(C(=O)N3CCOCC3)cc2)cc1, which Potency is on record?
**A.** The Potency was “inactive”.

**Q.** Which Potency does the source give for CC(C)(C)N1C(=O)[C@H]2[C@@H](c3ccc(Br)cc3)N3C(=O)N(c4ccc(Br)cc4)C(=O)[C@@]3(Cc3ccccc3)[C@H]2C1=O here?
**A.** Its Potency is “inactive”.

**Q.** Which Potency does the source give for Cc1cc2oc(C(=O)Nc3cccnc3)c(C)c2cc1C here?
**A.** The Potency was inconclusive [activator, full curve, poor fit].

**Q.** Which Potency does the source give for CSc1nc(-c2ccccc2)ccc1C(N)=O here?
**A.** Its Potency is inconclusive [activator, partial curve, poor fit].

**Q.** With COc1cccc(NC(=O)C2Cc3ccccc3CN2C(=O)c2ccco2)c1 (configuration not stated) as the compound, how does the Potency read?
**A.** The Potency was inconclusive [activator, partial curve, poor fit].

**Q.** For Cc1cc(NC(=O)c2cccc(F)c2)ncc1NC(=O)c1ccco1, which Potency is on record?
**A.** Its Potency is inconclusive [activator, partial curve, poor fit].

**Q.** For O=C(CSc1ccc(Cl)cc1)NC1CCCC1, which Potency is on record?
**A.** The Potency was inconclusive [activator, single point].

**Q.** With O=S(=O)(c1cccc(-c2nc3ccccc3s2)c1)N1CCCC1 as the compound, how does the Potency read?
**A.** Its Potency is inconclusive [activator, partial curve, poor fit].

**Q.** Which Potency does the source give for COc1ccccc1NC(=O)c1ccc(NC(=O)c2cc3c(s2)CCC3)cc1 here?
**A.** The Potency was “inactive”.

**Q.** For Cc1cc(C)c2nc(NNC(=O)c3ccc(S(=O)(=O)N4CCc5ccccc5C4)cc3)sc2c1, which Potency is on record?
**A.** Its Potency is inconclusive [activator, partial curve, poor fit].

**Q.** Which Potency does the source give for N#Cc1ccccc1CSc1nnc(-c2ccncc2)o1 here?
**A.** The Potency was inconclusive [activator, full curve, poor fit].

**Q.** With CCC(C)(C)NC(=S)Nc1ccc(-c2nc3ccc(C)cc3s2)cc1 as the compound, how does the Potency read?
**A.** The Potency was inconclusive [activator, full curve, poor fit].

**Q.** With CCN(CC)S(=O)(=O)c1ccc(/C=C/C(=O)Nc2ccc(F)cc2F)cc1 as the compound, how does the Potency read?
**A.** The Potency was inconclusive [activator, single point].

**Q.** With CC(C)N1CCN(C(=O)c2ccc(OC3CCN(CCc4ccccc4)CC3)cc2)CC1 as the compound, how does the Potency read?
**A.** Its Potency is inconclusive [activator, full curve, poor fit].

**Q.** Which Potency does the source give for CCc1ccc(NC(=O)COC(=O)/C(=C/c2ccccc2OC)c2ccccc2)cc1 here?
**A.** Its Potency is “inactive”.

**Q.** For CC(C)CC(=O)Nc1ncnc2c1C(=O)CC(C)(C)C2, which Potency is on record?
**A.** The Potency was inconclusive [activator, partial curve, poor fit].

**Q.** With COc1ccc(-c2ccccc2)cc1NCc1ccccc1C as the compound, how does the Potency read?
**A.** Its Potency is inconclusive [activator, partial curve, poor fit].

**Q.** For COc1ccc(OC)c(C(=O)C2COC(=O)C2)c1 (configuration not stated), which Potency is on record?
**A.** Its Potency is inconclusive [activator, single point].

**Q.** Which Potency does the source give for Cc1ccc(N2C(N)=NC(N)=NC23CCCC3)c(C)c1 here?
**A.** Its Potency is “inactive”.

**Q.** With Fc1cnc(N2CCOCC2)nc1NCc1ccccc1 as the compound, how does the Potency read?
**A.** The Potency was inconclusive [activator, partial curve, poor fit].

**Q.** With Cc1ccc2nc(-c3ccc(NC(=O)C4CCCO4)cc3)[nH]c2c1 (configuration not stated) as the compound, how does the Potency read?
**A.** Its Potency is “inactive”.

**Q.** For N#Cc1ccccc1OCC(=O)NC(=O)NC1CCS(=O)(=O)C1 (configuration not stated), which Potency is on record?
**A.** Its Potency is inconclusive [activator, single point].

**Q.** With Cc1ccc(CNC(=O)C(=O)NCC2CCCO2)cc1 (configuration not stated) as the compound, how does the Potency read?
**A.** Its Potency is inconclusive [activator, partial curve, poor fit].

**Q.** With NC1=NC(=O)C(CC(=O)c2ccc(Cl)cc2)S1 (configuration not stated) as the compound, how does the Potency read?
**A.** The Potency was inconclusive [activator, single point].

**Q.** Which Potency does the source give for COc1ccc([C@H]2CC(=O)C=C(c3ccc(OC(F)(F)F)cc3)C2)cc1 here?
**A.** The Potency was inconclusive [activator, single point].

**Q.** For c1ccc(CSc2ccc(-c3cccnc3)nn2)cc1, which Potency is on record?
**A.** Its Potency is inconclusive [activator, partial curve, poor fit].

**Q.** For CN(C)c1ccc(/C=N/NC(=O)c2cc(-c3ccc4c(c3)OCO4)n[nH]2)cc1, which Potency is on record?
**A.** Its Potency is “inactive”.

**Q.** Which Potency does the source give for Oc1ccc(CNc2ccccc2O)cc1 here?
**A.** The Potency was inconclusive [activator, single point].

**Q.** With O=C(O)c1ccc2c(c1)C(=O)N(NC(=O)c1ccccc1)C2=O as the compound, how does the Potency read?
**A.** Its Potency is “inactive”.

**Q.** Which Potency does the source give for FC(F)Oc1ccc(N=C2SCC3CCCCN23)cc1 (configuration not stated) here?
**A.** Its Potency is inconclusive [activator, full curve, poor fit].

**Q.** With CCn1c(Cc2ccc(OC)cc2)nnc1SCC(=O)NC1CC1 as the compound, how does the Potency read?
**A.** The Potency was inconclusive [activator, full curve, poor fit].

**Q.** Which Potency does the source give for Cc1ccc(C(=O)NC(=S)NNC(=O)c2ccccc2)cc1 here?
**A.** Its Potency is “inactive”.

**Q.** Which Potency does the source give for Cc1ccc(C)n1-c1ccc(N2CCOCC2)c(Br)c1 here?
**A.** Its Potency is inconclusive [activator, full curve, poor fit].

**Q.** With Clc1ccc(CNC2CCN(Cc3ccccc3)CC2)cc1 as the compound, how does the Potency read?
**A.** Its Potency is inconclusive [activator, partial curve, poor fit].
